Test results reported in PMC10214851.
No constants are given. Whether binding was seen depends on the method and setting. Binding seen in cells or lysates may run through a third protein. Some results given as binding are weak or reduced against the parent protein; the word gives no strength. Values belong to the binder of their own block, whether it stands above or below them.

Assays:
Assay in all cases: co-IP; isolated yeast mitochondria lysed in IP buffer (50 mM Tris-HCl pH 7.4, 50 mM NaCl) with 1% (w/v) digitonin and 1 mM PMSF; cleared lysate on anti-HA agarose beads for 2 h; bound proteins eluted with SDS sample buffer, SDS-PAGE and immunoblotting; baits also in Δom14, Δpor1 and Δmic60 backgrounds
[1] = biological target: T1, Cqd1–3xHA (S. cerevisiae) (UniProt Q02981)
T1 sequence: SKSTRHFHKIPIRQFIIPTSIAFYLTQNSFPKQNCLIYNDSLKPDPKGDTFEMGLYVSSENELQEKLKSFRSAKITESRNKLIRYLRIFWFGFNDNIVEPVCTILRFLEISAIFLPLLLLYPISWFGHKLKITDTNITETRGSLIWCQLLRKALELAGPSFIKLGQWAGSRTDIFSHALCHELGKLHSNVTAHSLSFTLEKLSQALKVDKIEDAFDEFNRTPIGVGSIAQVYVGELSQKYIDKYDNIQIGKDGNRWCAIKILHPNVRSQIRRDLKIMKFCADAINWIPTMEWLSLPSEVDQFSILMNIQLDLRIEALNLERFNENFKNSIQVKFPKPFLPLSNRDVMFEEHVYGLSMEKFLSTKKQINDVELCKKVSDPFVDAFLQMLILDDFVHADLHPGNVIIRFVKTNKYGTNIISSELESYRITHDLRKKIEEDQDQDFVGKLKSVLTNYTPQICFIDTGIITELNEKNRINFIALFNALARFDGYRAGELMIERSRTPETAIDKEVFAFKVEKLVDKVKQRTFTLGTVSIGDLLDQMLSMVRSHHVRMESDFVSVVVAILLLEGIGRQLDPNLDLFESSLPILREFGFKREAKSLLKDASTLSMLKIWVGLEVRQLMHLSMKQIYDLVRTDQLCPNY

[2] = biological target: T2, Mic10–3xHA (S. cerevisiae) (UniProt Q96VH5)
T2 sequence: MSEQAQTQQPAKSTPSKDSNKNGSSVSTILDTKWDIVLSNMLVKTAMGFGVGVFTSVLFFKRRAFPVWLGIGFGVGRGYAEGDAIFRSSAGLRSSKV

[3] = biological target: T3, Om14–3xHA (S. cerevisiae) (UniProt P38325)
T3 sequence: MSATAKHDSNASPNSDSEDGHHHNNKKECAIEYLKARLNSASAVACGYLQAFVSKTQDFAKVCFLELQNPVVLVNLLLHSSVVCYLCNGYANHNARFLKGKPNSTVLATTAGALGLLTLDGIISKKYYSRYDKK

[4] = biological target: T4, Mic60–3xHA (S. cerevisiae) (UniProt P36112)
T4 sequence: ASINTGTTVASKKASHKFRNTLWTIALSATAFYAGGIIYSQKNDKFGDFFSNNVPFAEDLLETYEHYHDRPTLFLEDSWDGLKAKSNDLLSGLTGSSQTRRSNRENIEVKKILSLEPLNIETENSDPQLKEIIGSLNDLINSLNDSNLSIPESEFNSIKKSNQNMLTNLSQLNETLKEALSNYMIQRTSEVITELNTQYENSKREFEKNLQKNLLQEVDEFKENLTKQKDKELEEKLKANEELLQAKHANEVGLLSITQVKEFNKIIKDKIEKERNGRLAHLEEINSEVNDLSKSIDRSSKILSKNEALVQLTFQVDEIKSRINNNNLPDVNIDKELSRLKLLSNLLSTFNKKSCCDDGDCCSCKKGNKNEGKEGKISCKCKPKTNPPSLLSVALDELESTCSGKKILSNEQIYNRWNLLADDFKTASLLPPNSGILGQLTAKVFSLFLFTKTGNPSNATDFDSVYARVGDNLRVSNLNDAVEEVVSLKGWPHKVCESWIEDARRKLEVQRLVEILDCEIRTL

[5] = biological target: Por1–3xHA (S. cerevisiae) (UniProt P04840)

binding [1]: no binding
B1: Mic10 (protein, UniProt Q96VH5 1-97)
chain: T2 sequence

binding [1]: binds
B2: Cqd1–3xHA (protein, UniProt Q02981 16-657)
chain: T1 sequence

binding [2]: no binding | binding [3]: binds | binding [4]: no binding | binding [5]: binds
B3: Cqd1 (protein, UniProt Q02981 16-657)
chain: T1 sequence

binding [1]: no binding
B4: Mic60 (protein, UniProt P36112 18-540)
chain: T4 sequence

binding [5]: binds
B5: Om45 (protein, UniProt P16547 1-393)
chain: MSSRIIVGSAALAAAITASIMVREQKAKGQRREGNVSAYYNGQEYGSSAPPQLGKLHNIKQGIKEDALSLKDALLGVSQKAREEAPKVTKRVISPEEDAQTRKQLGQKAKDSSSQSIFNWGFSEAERRKAIAIGEFDTAKKRFEEAVDRNEKELLSTVMREKKAALDRASIEYERYGRARDFNELSDKLDQQERNSNPLKRLLKNNTGDANTEEAAARSVQGWGDTAQEFGREELEEAKRNASSEPSEAQKRLDELKKIKEKGWFGYNKGEQSEQQIAERVARGLEGWGETAAQLSKDEMDDLRWNYENSKKQLDKNVSDAMDSLSKAKEDLKQYGSHWWSGWTSKVDNDKQALKDEAQKKYDEALKKYDEAKNKFKEWNDKGDGKFWSSKKD
